{
  "source": "PubChem BioAssay (Tox21)",
  "key": {"[1]": {"experiment": "qHTS assay for small molecules that induce genotoxicity in human embryonic kidney cells expressing luciferase-tagged ATAD5 - cell viability (AID 651634; calls by dose curve; also: nearly all actives have a fitted effect of over 25% in size)", "how_it_was_run": "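HEK293T cells carrying luciferase-tagged ATAD5, 2,000 cells/well, exposed to compound for 15.5 hr at 37C. Viability read as live-cell protease activity by CellTiter-Fluor fluorescence after 30 min at 37C.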"}, "[2]": {"experiment": "qHTS assay to identify small molecule antagonists of the glucocorticoid receptor (GR) signaling pathway - cell viability counter screen (AID 720693); also: nearly all actives have a fitted effect of over 55% in size"}, "[3]": {"experiment": "qHTS assay to identify small molecule antagonists of the androgen receptor (AR) signaling pathway using the MDA cell line - cell viability counter screen (AID 743041; also: nearly all actives have a fitted effect of over 45% in size)", "how_it_was_run": "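MDA-kb2 AR-luc cells (MMTV-luciferase, AR/GR responsive) treated with compounds plus R1881 agonist for 16 h at 37C. CellTiter-Fluor added at 15.5 h; fluorescence read after 30 min in the same wells.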"}, "[4]": {"experiment": "qHTS assay to identify small molecule antagonists of the constitutive androstane receptor (CAR) signaling pathway - cell viability counter screen (AID 1224837); also: nearly all actives have a fitted effect of over 45% in size", "how_it_was_run": "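HepG2 cells stably carrying hCAR and CYP2B6-2.2kb reporter, stimulated with 50 nM CITCO and compounds at 15 concentrations for 23 h at 37 C. Viability measured by CellTiter-Fluor fluorescence.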"}, "[5]": {"experiment": "A CellTox Green Cytotoxicity Assay to monitor cytotoxicity in HEK293 cells - 24 hour (AID 1224875); also: nearly all actives have a fitted effect of over 45% in size", "how_it_was_run": "(§1)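 HEK293 cells, 600/well, were preincubated 5 hours and then exposed to compounds at 37 C for up to 40 hours. A cell-impermeant cyanine dye staining dead-cell DNA was read by fluorescence at 0, 8, 16, 24, 32 and 40 h time points.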"}, "[6]": {"experiment": "A CellTox Green Cytotoxicity Assay to monitor cytotoxicity in HEK293 cells - 16 hour (AID 1224888)", "how_it_was_run": "as §1"}},
  "note": "Results filed as inconclusive are left out. Unless noted, calls follow the shape of the dose curve; as a rule, active = well fitted curve in the direction sought with a large enough effect in the repeat runs; inconclusive = weak or mixed curves; inactive = no such curve, though single readings can be large; an effect the other way counts as inactive or inconclusive. Where a structure was tested more than once in an assay, its records may differ in their call. The source holds more than one record for some entries. The other results are left out here. An entry can have further records. Values given together repeat one measurement across runs, samples, wells, individuals or studies. Brackets tell where a record comes from. Letters hold for one entry only. Potency is read from the fitted curve at half-maximal effect.",
  "data": [
    {"smiles": "Oc1c(Cl)cc(Cl)c(Cl)c1Cl", "values": [
      {"measurement": "Potency", "setting": "[1]", "value": "active: 53.3 µM [sample A] and inactive [sample B]"}
    ]},
    {"smiles": "C=C(C)C(=O)OCCC[Si](OC)(OC)OC", "values": [
      {"measurement": "Potency", "setting": "[2]", "value": "inactive [sample A] and active: 12.3 µM [sample B]"}
    ]},
    {"smiles": "C=C1CC[C@H](O)CC1=C/C=C1\\CCC[C@]2(C)[C@@H]([C@H](C)/C=C/[C@H](C)C(C)C)CC[C@@H]12", "values": [
      {"measurement": "Potency", "setting": "[2]", "value": "inactive [sample A] and active: 48.5 µM [sample B]"}
    ]},
    {"smiles": "O=[N+]([O-])c1cc(N(CCO)CCO)ccc1NCCO", "values": [
      {"measurement": "Potency", "setting": "[3]", "value": "active: 48.5 µM [sample A] and inactive [sample B]"}
    ]},
    {"smiles": "O=C1N=C(O)CN1/N=C/c1ccc(-c2ccc([N+](=O)[O-])cc2)o1", "values": [
      {"measurement": "Potency", "setting": "[3]", "value": "inactive [sample A] and active: 27.3 µM [sample B]"}
    ]},
    {"smiles": "CCCCC(CC)COC(=O)CCCCCCCC(=O)OCC(CC)CCCC", "note": "(stereo unspecified)", "values": [
      {"measurement": "Potency", "setting": "[4]", "value": "active: 30.6 µM [sample A] and inactive [sample B]"},
      {"measurement": "Potency", "setting": "[5]", "value": "active: 54.9 µM [sample A] and inactive [sample B]"},
      {"measurement": "Potency", "setting": "[6]", "value": "active: 54.9 µM [sample A] and inactive [sample B]"}
    ]},
    {"smiles": "COC(=O)c1ccc(C(=O)OC)cc1", "values": [
      {"measurement": "Potency", "setting": "[4]", "value": "active: 12.4 µM [sample A] and inactive [sample B]"}
    ]},
    {"smiles": "C=C(C)C(=O)OCC(CC)(COC(=O)C(=C)C)COC(=O)C(=C)C", "values": [
      {"measurement": "Potency", "setting": "[5]", "value": "inactive [sample A] and active: 38.2 µM [sample B]"},
      {"measurement": "Potency", "setting": "[6]", "value": "inactive [sample A] and active: 38.2 µM [sample B]"}
    ]}
  ]
}
